Measured values published in PubChem BioAssay AID743279 (National Center for Advancing Translational Sciences (NCATS), 2014).
About 17,000 (4.7%) of roughly 360,000 compounds were called active. This list was built around the results that the source calls inconclusive (neither active nor inactive); the mix of calls is not that of the screen. Rule as the data show it: active = activity change below about -50%; inconclusive = mostly about -30% to -49%; inactive = weaker than that.
% is scaled to controls: 0 for no effect and ±100 for the full control effect.

Assay: qHTS for Inhibitors of Inflammasome Signaling: IL-1-beta AlphaLISA Primary Screen
Conditions: THP-1 LPS/ATP IL-1B secretion, 16 h; at 57.5 µM, active compounds read low
Method in brief: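 THP-1 cells pretreated 1 hr with compounds (up to 57.5 uM final), then stimulated with LPS (250 ng/mL final) plus ATP (1.25 mM final); secreted IL-1B measured by AlphaLISA after 16 hr, decreased signal indicating inhibition.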
In the case of `COc1ccccc1-c1cn[nH]c1-c1ccc(OCc2ccccc2F)cc1O`, the activity change is reported as active: -101%. With `Cc1cc(C2=CC(=O)C[C@H](c3ccc4c(c3)OCO4)C2)ccc1F` the activity change was active: -51%. In the case of `O=C(C1CCN(S(=O)(=O)c2ccccc2)CC1)N1CCc2ccccc21`, the activity change is reported as “inactive”. For `COc1cccc(-c2cc3nc(-c4ccccc4)cc(N4CCN(C(=O)c5ccoc5)CC4)n3n2)c1`, the activity change was inactive: -13.3%. For `CS(=O)(=O)c1ccccc1-c1nc(-c2ccc(C(F)(F)F)cc2)no1`, the activity change was inconclusive: -44.5%. For `CCC(C)(C)NCC(=O)Nc1ccc(OC(F)(F)F)cc1`, the activity change was inconclusive: -42.3%. For `NS(=O)(=O)c1ccc(CNC(=O)Cc2ccccc2F)cc1`, the activity change was inactive: 19.1%. For `Cc1[nH]nc(-c2ccc(O)cc2O)c1-c1ccc(Cl)cc1`, the activity change was inconclusive: -33.4%. For `N#Cc1nc(Cc2ccccc2)oc1N1CCN(c2ccccc2)CC1`, the activity change was inconclusive: -42.1%. With `C=CC[C@@H](CC(=O)N(CCO)Cc1ccccc1)C(=O)N[C@H](COC(=O)[C@@H](CC=C)CC(=O)OC(C)(C)C)Cc1ccccc1` the activity change was inconclusive: -40.8%. For `COc1cccc(CN2C(=O)c3cccc(N)c3C2=O)c1`, the activity change was inactive: 4.78%. In the case of `CN(CCOc1ccccc1)C(=O)c1cc(S(=O)(=O)N2CCCCC2)ccc1Cl`, the activity change is reported as active: -65.2%. With `CN1CCN(CC(=O)Nc2nc(-c3c[nH]c4ccccc34)cs2)CC1` the activity change was active: -68.2%. In the case of `COc1ccc(C2c3c(ncn(Cc4ccco4)c3=N)Oc3ccc4ccccc4c32)cc1` (centres undefined), the activity change is reported as active: -76.7%. With `NC(COCc1ccccc1)c1csc(Nc2nncc3ccccc23)n1` (centres undefined) the activity change was inconclusive: -39%. In the case of `COc1ccc(N2CCN(c3ncnc4scc(-c5ccccc5)c34)CC2)cc1`, the activity change is reported as inconclusive: -34.7%. For `Cc1ccccc1OC(C)C(=O)N1CCC(Cc2ccccc2)CC1` (centres undefined), the activity change was active: -54.5%. With `Cc1ccc2c(C)c(C(=O)NCC3CCOCC3)oc2c1C` the activity change was inconclusive: -30.3%. For `CN(C)CCNC(=O)c1ccc(-c2cn3c(-c4ccc(Oc5ccccc5)cc4)cnc3cn2)cc1`, the activity change was active: -66.3%. For `Cc1cccc(OCCn2cc(/C=N/NC(=O)c3ccncc3)c3ccccc32)c1`, the activity change was inconclusive: -31%. With `O=C(NC(=S)Nc1ccccc1N1CCOCC1)c1ccc([N+](=O)[O-])cc1` the activity change was inactive: 0%. With `Cn1c(-c2cccc(Br)c2)cnc1NCc1ccccc1O` the activity change was active: -68.7%. With `O=[N+]([O-])c1ccc(Nc2ccc3ccccc3c2)nc1` the activity change was inactive: -4.77%. For `Clc1ccc2c(SCC3CO3)c3ccccc3nc2c1` (centres undefined), the activity change was inconclusive: -37.8%. In the case of `CC(=O)C1=CCC(c2ccccc2Cl)N(S(=O)(=O)c2ccc(C)cc2)C1` (centres undefined), the activity change is reported as inconclusive: -39.2%. In the case of `CCC(C)[C@H]1CN=C(N)N1CCc1cccc2ccccc12` (some centres undefined), the activity change is reported as inconclusive: -37.2%. For `Fc1ccc2nc(C3CCCCN3Cc3nc(CC4CC4)no3)[nH]c2c1` (centres undefined), the activity change was active: -64.9%. For `CC(C)C[C@H]1CN=C(Nc2ccccc2)N1CC1CCCCC1`, the activity change was inconclusive: -35.5%. In the case of `COC(=O)c1cc(NC(=O)Cc2coc3cc(OC)ccc23)cc(C(=O)OC)c1`, the activity change is reported as inactive: -15.7%. For `CC(C)CCOc1cccc(OCC(=O)Nc2ccncc2)c1`, the activity change was inactive: -23.1%. For `CCCC1CCc2c(sc(NC(=O)OCC)c2C#N)C1` (centres undefined), the activity change was inconclusive: -43.3%. For `COc1ccc(NC(=O)c2cc(C3CCCCN3S(=O)(=O)c3cn(C)cn3)on2)c(C)c1` (centres undefined), the activity change was inconclusive: -34.2%. With `CC(=O)c1cccc(NC(=O)Nc2ccc3c(c2)OCO3)c1` the activity change was inconclusive: -43.9%. For `Clc1ccc(SCCOCCN2CCOCC2)cc1`, the activity change was inactive: -2.25%. With `O=C(/C=C/c1ccc(O)cc1)c1ccc(NC2=C(N3CCCCC3)C(=O)c3ccccc3C2=O)cc1` the activity change was inconclusive: -32.4%. In the case of `O=C1C(Cc2ccccc2)Nc2ncnc(N3CCN(c4ccccc4)CC3)c2N1Cc1ccc(Br)cc1` (centres undefined), the activity change is reported as inconclusive: -42.8%. For `COc1cc(OC)cc(C(=O)N[C@H](C(=O)Nc2nc(-c3ccc(OC)c(OC)c3)cs2)C(C)C)c1`, the activity change was inactive: -28.6%. With `Cc1c(Cl)cccc1NC(=S)NCc1ccc2c(c1)OCO2` the activity change was inconclusive: -35.2%. For `COc1ccc2cc3cc(C(=O)NC(C)C)oc3nc2c1`, the activity change was inconclusive: -38.5%. With `CSc1nnc(C)c(=O)n1COC(=O)/C=C/c1ccccc1` the activity change was inconclusive: -49.6%. With `CC(C)n1c(N2CCN(C(=O)Nc3ccccc3)CC2)nc2ccccc21` the activity change was inconclusive: -37%. In the case of `CC(=O)c1ccc(NC(=O)CN(c2c(C)cccc2C)S(C)(=O)=O)cc1`, the activity change is reported as inactive: -11%. For `Cc1ccc(N2CCN(C(=O)c3cc(C(=O)c4ccccc4C)c[nH]3)CC2)c(C)c1`, the activity change was inconclusive: -47.5%. With `COc1cccc2sc(N(CCCN(C)C)C(=O)c3ccc(S(=O)(=O)N4CCc5ccccc5C4)cc3)nc12` the activity change was active: -97.2%. In the case of `COCC(=O)N(C)C[C@@H]1Oc2cc(-c3ccc(F)cc3)ccc2S(=O)(=O)N([C@H](C)CO)C[C@H]1C`, the activity change is reported as inconclusive: -33.4%. With `COc1ccc(NC(=O)CN(C)CC(=O)Nc2cccc(S(=O)(=O)N(C)c3ccccc3)c2)cc1` the activity change was inconclusive: -45.2%. For `Cc1ccc(C)c(NC(=O)c2ccccc2NS(=O)(=O)c2cc([N+](=O)[O-])ccc2C)c1`, the activity change was inconclusive: -34%. In the case of `O=C(NCc1ccco1)C1CCN(c2nc3ccccc3n2Cc2ccc(F)cc2)CC1`, the activity change is reported as inconclusive: -36.4%. In the case of `CCC/C=C/c1ccc(CN2C(CC(C)C)C(=O)N(Cc3cn(CCC4OCCO4)nn3)CCS2(=O)=O)cc1` (centres undefined), the activity change is reported as inconclusive: -33.7%. In the case of `COc1ccc(C(O)(CCC(C)C)C(CN2CCOCC2)c2ccccc2)cc1` (centres undefined), the activity change is reported as inconclusive: -47.7%. For `COc1nccnc1NS(=O)(=O)c1ccc(NC(=S)NC(=O)/C=C/c2ccc(F)cc2)cc1`, the activity change was inconclusive: -39%. For `COc1cc(/C=N/n2cnn(Cc3ccccc3Cl)c2=S)cc(OC)c1OC`, the activity change was inactive: 19.4%. For `COc1ccc(-c2nn(C)c3sc(C(=O)NCCN(C)C)cc23)cc1OC`, the activity change was inconclusive: -30.8%. For `CCS(=O)c1ccccc1C(=O)OCC(=O)N1CCC(c2ccccc2)=N1` (centres undefined), the activity change was inconclusive: -34.7%.
